# According to the supplement of paper PMC8728848:
# Some of the results follow.
# B1: Epa7 (Candida glabrata), Q6DTM6_CANGB (protein)
# chain: MGSSHHHHHHSSGLVPRGSHMKDDYSSFLSNNNLGWTDPTEFPLGCSPNVTTPKNGLSMELYSYDLRKNGSYPCWDAAYLDPNYPRTGYKSHRLLAKVDGVTGNINFYYHATKGCTPEIDHLPASYNYPKPLTMTNFTMLLYGYFKPKVTGYHTFTISADDLLFVNFGAGNAFDCCKRESSADDFGNYQAYAVWGSQTAKDDLTVHLDAGLYYPIRIFFNNREYDAELSLTLKTESDSNPVIDFSDYFYSFDDTKDGCPGLVSYDTS
# Columns and labels:
# Test in all cases: glycan array binding signal (z-score within array); higher = stronger binding
# Settings in all cases: glycan notation: IUPAC condensed, linker removed
# [1] = molecular target: Neu5Ac(a2-6)Gal(b1-4)GlcNAc(b1-2)Man(a1-3)[GlcNAc(b1-2)Man(a1-6)]Man(b1-4)GlcNAc(b1-4)GlcNAc
# Procedure, shortened: (§1)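 The binding signal is a Z-score computed within each array. Data were drawn from 3228 arrays in the Consortium for Functional Glycomics database, restricted to those with a known protein sequence. Scores were averaged over arrays of the same protein sequence at different concentrations or buffers, and over linkers, and negative values can be taken as non-binding.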
# [2] = molecular target: Neu5Ac(a2-6)Gal(b1-4)GlcNAc(b1-2)Man(a1-3)[GlcNAc(b1-4)][Neu5Ac(a2-6)Gal(b1-4)GlcNAc(b1-2)Man(a1-6)]Man(b1-4)GlcNAc(b1-4)GlcNAc
# Procedure, shortened: as §1
# [3] = molecular target: Neu5Ac(a2-6)Gal(b1-4)GlcNAc(b1-2)Man(a1-3)[Man(a1-6)]Man(b1-4)GlcNAc(b1-4)GlcNAc
# Procedure, shortened: as §1
# [4] = molecular target: Neu5Ac(a2-6)Gal(b1-4)GlcNAc(b1-2)Man(a1-3)[Neu5Ac(a2-3)Gal(b1-4)GlcNAc(b1-2)Man(a1-6)]Man(b1-4)GlcNAc(b1-4)GlcNAc
# Procedure, shortened: as §1
# [5] = molecular target: Neu5Ac(a2-6)Gal(b1-4)GlcNAc(b1-2)Man(a1-3)[Neu5Ac(a2-6)Gal(b1-4)GlcNAc(b1-2)Man(a1-6)]Man(b1-4)GlcNAc(b1-4)GlcNAc
# Procedure, shortened: as §1
# [6] = molecular target: Neu5Ac(a2-6)Gal(b1-4)GlcNAc(b1-2)Man(a1-3)[Neu5Ac(a2-6)Gal(b1-4)GlcNAc(b1-2)Man(a1-6)]Man(b1-4)GlcNAc(b1-4)[Fuc(a1-6)]GlcNAc
# Procedure, shortened: as §1
# [7] = molecular target: Neu5Ac(a2-6)Gal(b1-4)GlcNAc(b1-2)Man(a1-6)Man(b1-4)GlcNAc(b1-4)GlcNAc
# Procedure, shortened: as §1
# [8] = molecular target: Neu5Ac(a2-6)Gal(b1-4)GlcNAc(b1-2)Man(a1-6)[Gal(b1-4)GlcNAc(b1-2)Man(a1-3)]Man(b1-4)GlcNAc(b1-4)GlcNAc
# Procedure, shortened: as §1
# [9] = molecular target: Neu5Ac(a2-6)Gal(b1-4)GlcNAc(b1-2)Man(a1-6)[GlcNAc(b1-2)Man(a1-3)]Man(b1-4)GlcNAc(b1-4)GlcNAc
# Procedure, shortened: as §1
# [10] = molecular target: Neu5Ac(a2-6)Gal(b1-4)GlcNAc(b1-2)Man(a1-6)[Man(a1-3)]Man(b1-4)GlcNAc(b1-4)GlcNAc
# Procedure, shortened: as §1
# [11] = molecular target: Neu5Ac(a2-6)Gal(b1-4)GlcNAc(b1-2)[Neu5Ac(a2-6)Gal(b1-4)GlcNAc(b1-4)]Man(a1-3)[GlcNAc(b1-4)][Neu5Ac(a2-6)Gal(b1-4)GlcNAc(b1-2)[Neu5Ac(a2-6)Gal(b1-4)GlcNAc(b1-6)]Man(a1-6)]Man(b1-4)GlcNAc(b1-4)GlcNAc
# Procedure, shortened: as §1
# [12] = molecular target: Neu5Ac(a2-6)Gal(b1-4)GlcNAc(b1-2)[Neu5Ac(a2-6)Gal(b1-4)GlcNAc(b1-4)]Man(a1-3)[GlcNAc(b1-4)][Neu5Ac(a2-6)Gal(b1-4)GlcNAc(b1-4)Man(a1-6)]Man(b1-4)GlcNAc(b1-4)GlcNAc
# Procedure, shortened: as §1
# [13] = molecular target: Neu5Ac(a2-6)Gal(b1-4)GlcNAc(b1-2)[Neu5Ac(a2-6)Gal(b1-4)GlcNAc(b1-6)]Man(a1-6)[Neu5Ac(a2-6)Gal(b1-4)GlcNAc(b1-2)Man(a1-3)][GlcNAc(b1-4)]Man(b1-4)GlcNAc(b1-4)GlcNAc
# Procedure, shortened: as §1
# [14] = molecular target: Neu5Ac(a2-6)Gal(b1-4)GlcNAc(b1-3)Gal(b1-3)GlcNAc
# Procedure, shortened: as §1
# [15] = molecular target: Neu5Ac(a2-6)Gal(b1-4)GlcNAc(b1-3)Gal(b1-4)GlcNAc
# Procedure, shortened: as §1
# [16] = molecular target: Neu5Ac(a2-6)Gal(b1-4)GlcNAc(b1-3)Gal(b1-4)GlcNAc(b1-2)Man(a1-3)[Neu5Ac(a2-6)Gal(b1-4)GlcNAc(b1-3)Gal(b1-4)GlcNAc(b1-2)Man(a1-6)]GalNAc
# Procedure, shortened: as §1
# [17] = molecular target: Neu5Ac(a2-6)Gal(b1-4)GlcNAc(b1-3)Gal(b1-4)GlcNAc(b1-3)Gal(b1-4)GlcNAc
# Procedure, shortened: as §1
# [18] = molecular target: Neu5Ac(a2-6)Gal(b1-4)GlcNAc(b1-3)Gal(b1-4)GlcNAc(b1-3)Gal(b1-4)GlcNAc(b1-2)Man(a1-3)[Neu5Ac(a2-6)Gal(b1-4)GlcNAc(b1-3)Gal(b1-4)GlcNAc(b1-3)Gal(b1-4)GlcNAc(b1-2)Man(a1-6)]GalNAc
# Procedure, shortened: as §1
# [19] = molecular target: Neu5Ac(a2-6)Gal(b1-4)GlcNAc(b1-3)Gal(b1-4)GlcNAc(b1-3)GalNAc
# Procedure, shortened: as §1
# [20] = molecular target: Neu5Ac(a2-6)Gal(b1-4)GlcNAc(b1-3)Gal(b1-4)GlcNAc(b1-3)[Neu5Ac(a2-6)Gal(b1-4)GlcNAc(b1-3)Gal(b1-4)GlcNAc(b1-6)]GalNAc
# Procedure, shortened: as §1
# [21] = molecular target: Neu5Ac(a2-6)Gal(b1-4)GlcNAc(b1-3)Gal(b1-4)GlcNAc(b1-6)[Gal(b1-3)]GalNAc
# Procedure, shortened: as §1
# [22] = molecular target: Neu5Ac(a2-6)Gal(b1-4)GlcNAc(b1-3)Gal(b1-4)[Fuc(a1-3)]GlcNAc(b1-3)Gal(b1-4)[Fuc(a1-3)]GlcNAc
# Procedure, shortened: as §1
# [23] = molecular target: Neu5Ac(a2-6)Gal(b1-4)GlcNAc(b1-3)GalNAc
# Procedure, shortened: as §1
# [24] = molecular target: Neu5Ac(a2-6)Gal(b1-4)GlcNAc(b1-3)[Neu5Ac(a2-6)Gal(b1-4)GlcNAc(b1-6)]GalNAc
# Procedure, shortened: as §1
# [25] = molecular target: Neu5Ac(a2-6)Gal(b1-4)GlcNAc(b1-6)GalNAc
# Procedure, shortened: as §1
# [26] = molecular target: Neu5Ac(a2-6)Gal(b1-4)GlcNAc(b1-6)[Gal(b1-3)GlcNAc(b1-3)]Gal(b1-4)Glc
# Procedure, shortened: as §1
# [27] = molecular target: Neu5Ac(a2-6)Gal(b1-4)GlcNAc(b1-6)[Gal(b1-3)]GalNAc
# Procedure, shortened: as §1
# [28] = molecular target: Neu5Ac(a2-6)Gal(b1-4)GlcNAc6S
# Procedure, shortened: as §1
# Neu5Ac(a2-6)GalNAc = molecular target: Neu5Ac(a2-6)GalNAc
# Procedure, shortened: as §1
# [29] = molecular target: Neu5Ac(a2-6)GalNAc(b1-4)GlcNAc
# Procedure, shortened: as §1
# [30] = molecular target: Neu5Ac(a2-6)GalNAc(b1-4)GlcNAc6S
# Procedure, shortened: as §1
# [31] = molecular target: Neu5Ac(a2-6)GlcNAc(b1-4)GlcNAc
# Procedure, shortened: as §1
binder,measurement,setting,value
B1,glycan array binding signal (z-score),[1],-0.214
same,glycan array binding signal (z-score),[2],-0.231
same,glycan array binding signal (z-score),[3],-0.226
same,glycan array binding signal (z-score),[4],-0.231
same,glycan array binding signal (z-score),[5],-0.237
same,glycan array binding signal (z-score),[6],-0.235
same,glycan array binding signal (z-score),[7],-0.243
same,glycan array binding signal (z-score),[8],-0.22
same,glycan array binding signal (z-score),[9],-0.227
same,glycan array binding signal (z-score),[10],-0.239
same,glycan array binding signal (z-score),[11],-0.234
same,glycan array binding signal (z-score),[12],-0.239
same,glycan array binding signal (z-score),[13],-0.233
same,glycan array binding signal (z-score),[14],-0.227
same,glycan array binding signal (z-score),[15],-0.258
same,glycan array binding signal (z-score),[16],-0.215
same,glycan array binding signal (z-score),[17],-0.228
same,glycan array binding signal (z-score),[18],-0.217
same,glycan array binding signal (z-score),[19],-0.228
same,glycan array binding signal (z-score),[20],-0.224
same,glycan array binding signal (z-score),[21],1.02
same,glycan array binding signal (z-score),[22],-0.17
same,glycan array binding signal (z-score),[23],-0.013
same,glycan array binding signal (z-score),[24],-0.196
same,glycan array binding signal (z-score),[25],-0.217
same,glycan array binding signal (z-score),[26],-0.178
same,glycan array binding signal (z-score),[27],1.19
same,glycan array binding signal (z-score),[28],-0.257
same,glycan array binding signal (z-score),Neu5Ac(a2-6)GalNAc,-0.264
same,glycan array binding signal (z-score),[29],-0.259
same,glycan array binding signal (z-score),[30],-0.237
same,glycan array binding signal (z-score),[31],-0.241
